Laboratory results taken from the supplement of paper PMC3334620.
In all, about 33,000 sequences were measured (“E-score (-0.5 to 0.5)”: median about -0.054, highest 2% from about 0.39 on). Some of the results follow.

Each sequence was assayed against Ylr278c (UniProt Q05854) (assay: PBM E-score (8-mer binding enrichment) (E-score (-0.5 to 0.5)); higher = stronger / more preferred TF binding; most listed sequences are background and not binding sites). Conditions: protein concentration: 200 nM; construct: GST-DNA-binding domain.
Method: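 Universal 'all 10-mer' protein binding microarrays (Agilent AMADID 015681) probed with GST-tagged S. cerevisiae TFs (full-length or DBD) made by in vitro transcription/translation (PURExpress), about 100-200 nM. Bound TF was detected with fluorescent anti-GST. Each ungapped 8-mer (which stands for itself and its reverse complement) is scored by the PBM enrichment score (E-score), a modified Wilcoxon-Mann-Whitney statistic from -0.5 to +0.5, computed with the Universal PBM Analysis Suite. Scale: above 0.35 generally sequence-specific binding.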

Row | Sequence | PBM E-score
1 | ATGATGCG | -0.0171
2 | CCCGAGTC | 0.218
3 | CCGCGCCG | 0.4
4 | CAACGTGA | -0.172
5 | CACACCAC | -0.00397
6 | AATCCTTC | -0.0261
7 | TACGTTCA | -0.23
8 | GTTTGTTA | -0.00603
9 | AAACTGCG | 0.151
10 | ATGCGCGG | 0.296
11 | ATTGATCG | 0.0516
12 | ATGGCAGA | -0.0323
13 | CTAGTACC | -0.169
14 | GTAGGATA | -0.156
15 | ACGAGAAG | -0.124
16 | AATCCACG | 0.0023
17 | ATGAAGTC | -0.138
18 | TAAGCATA | -0.106
19 | AATATAAC | -0.00861
20 | AAATGGTT | -0.0331
21 | CGCCCGAC | 0.279
22 | CAGTCCAA | -0.218

Row | Sequence | PBM E-score
23 | ACACGAGA | -0.162
24 | ATGGGCCA | -0.098
25 | AGACAGCA | -0.0712
26 | CATACTCG | 0.147
27 | ACCGAAAG | 0.0189
28 | AAGTGTTA | -0.123
29 | TACTACAA | -0.0307
30 | AGCGGACA | 0.294
31 | ACATAAAC | -0.122
32 | AATAAACC | 0.0827
33 | ATTAACGC | 0.0233
34 | TCGCCAGA | -0.26
35 | CTACTCGA | -0.0146
36 | TCACCGAA | 0.178
37 | AATTAGCA | 0.01
38 | ACGTGATA | -0.178
39 | AAAAAAGA | -0.0771
40 | AGTCGACG | 0.0544
41 | ATTAACTC | 0.0677
42 | GCCGTGAA | 0.204
43 | TGGCGCAA | -0.118
44 | AGAGCACC | -0.204

Row | Sequence | PBM E-score
45 | GGTGTCTA | -0.175
46 | AGGGTAGC | -0.222
47 | GGGTGAAA | 0.0762
48 | AGATTAAG | -0.104
49 | CATGCGTC | -0.0854
50 | ATATCTCG | 0.0977
51 | AGCCGAGC | 0.24
52 | GAGCGAAC | -0.014
53 | CGGTATGA | 0.0369
54 | GAGCGTCA | -0.076
55 | TCAATACA | -0.184
56 | AATGAAAG | -0.17
57 | AAGAGTCA | -0.259
58 | AGCGAGTG | -0.0417
59 | GTGTGCTA | -0.0372
60 | ATAACACC | 0.158
61 | CGTACGGA | 0.301
62 | ACTATACC | 0.0206
63 | CCTAGAGG | -0.229
64 | AAGTTACT | 0.0192
65 | GTTGACCA | -0.111
66 | ATAAGCAG | -0.148

Row | Sequence | PBM E-score
67 | ACCCGGGC | 0.273
68 | GCACGTCC | 0.00088
69 | ATCCTCGC | 0.0602
70 | CGCGCGCA | 0.264
71 | TGTTCTAA | -0.0481
72 | AACGGGAC | 0.0356
73 | CACCCCGA | 0.29
74 | AGTTGGCA | -0.172
75 | ACTTCACT | -0.0406
76 | ATTTAAAG | 0.209
77 | AATAAGGA | -0.127
78 | GCAATGAA | -0.0632
79 | GTGATAGA | -0.0764
80 | GCGGAAGC | 0.272
81 | CTGGGACC | -0.274
82 | CCGCGATC | 0.259
83 | CATTCCAC | -0.0106
84 | CTGCTCAA | -0.251
85 | AACCATAG | 0.0626
86 | ACTGTGAC | -0.145
